Reference: PubChem BioAssay AID588342 (National Center for Advancing Translational Sciences (NCATS), 2011)
Hit rate of the full screen: of about 360,000 compounds, about 25,000 (6.9%) were called active. Inconclusive results, whose numbers are uncertain, are shown with a selection of clear calls. The call rests on the fitted dose curve; in most records, active means well fitted inhibition curve with a large enough effect; inconclusive means small, poorly fitted or top-dose-only effect; inactive means flat fitted curve, though single readings scatter. Potencies beside an inconclusive call are fits to weak or partial responses and may not hold up.

Molecular target: Luciferin 4-monooxygenase (Photinus pyralis) (UniProt P08659)
Assay: qHTS profiling assay for firefly luciferase inhibitor/activator using purifed enzyme and Km concentrations of substrates (counterscreen for miR-21 project); further: nearly all actives have a fitted effect of over 55% in size
Conditions: purified FLuc, luminescence inhibition; series mostly up to 57.5 µM
Summary of the method: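 Biochemical qHTS of compounds, final roughly 60 µM downward over six points, against 10 nM purified firefly luciferase using Km concentrations of substrates (10 uM D-luciferin, 10 uM ATP) in Tris acetate pH 7.5 buffer; luminescence output.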
Potency means the concentration at half of the fitted maximal effect; tags describe the fitted curve by direction and shape.

UniProt P08659, sequence (P08659 whole entry, looked up): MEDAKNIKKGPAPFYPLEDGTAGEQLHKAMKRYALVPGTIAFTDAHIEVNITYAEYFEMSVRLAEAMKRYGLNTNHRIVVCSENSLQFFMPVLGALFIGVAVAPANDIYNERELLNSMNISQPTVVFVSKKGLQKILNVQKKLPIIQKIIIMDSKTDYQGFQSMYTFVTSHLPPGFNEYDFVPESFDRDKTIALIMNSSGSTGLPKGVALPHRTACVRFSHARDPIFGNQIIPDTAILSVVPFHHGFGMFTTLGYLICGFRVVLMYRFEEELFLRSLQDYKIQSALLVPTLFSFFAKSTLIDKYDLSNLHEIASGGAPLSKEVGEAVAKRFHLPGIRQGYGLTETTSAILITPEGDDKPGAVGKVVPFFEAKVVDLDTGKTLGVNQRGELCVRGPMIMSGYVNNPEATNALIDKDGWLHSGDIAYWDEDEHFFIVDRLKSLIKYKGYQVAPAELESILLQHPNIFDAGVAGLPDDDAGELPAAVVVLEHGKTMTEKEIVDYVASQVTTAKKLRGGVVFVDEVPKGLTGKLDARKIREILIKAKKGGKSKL

Structure (SMILES) | Potency
COc1ccc(/C=C2\CCC(C3CCCC3)C2=O)cc1Cn1nc(C)cc1C (stereo not given) | inconclusive: 30.1 µM [inhibitor, partial curve, poor fit]
CCOC(=O)N1CCN(C(=O)Cn2ncn3nc(-c4cccs4)cc3c2=O)CC1 | inconclusive: 19 µM [inhibitor, partial curve, poor fit]
COc1ccc(-c2cc3nc(C)cc(C)n3n2)cc1 | active: 7.57 µM
Cc1ccc(C(=O)O)cc1-c1ccc(/C=C2/NC(=O)N(c3ccccc3)C2=O)o1 | inconclusive: 23.9 µM [inhibitor, partial curve, poor fit]
CC1(C)Cc2nc3sc4c(N(CCO)CCO)nnnc4c3cc2CO1 | inconclusive: 23.9 µM [inhibitor, single point]
COc1cc(/C=N/NC(=O)c2nnn(-c3nonc3N)c2-c2cccs2)ccc1O | inconclusive: 23.9 µM [inhibitor, single point]
CCc1ccc(OCc2n[nH]c(=S)n2C(C)CCCC(C)C)cc1 (stereo not given) | inconclusive: 30.1 µM [inhibitor, partial curve, poor fit]
COc1ccccc1N1CCN(S(=O)(=O)CCNC(=O)c2ccc(Br)o2)CC1 | inactive
N#C/C(=C\c1ccc(-c2cccc([N+](=O)[O-])c2)o1)C(=O)N1CCOCC1 | inconclusive: 23.9 µM [inhibitor, partial curve, poor fit]
CCOC(=O)Cc1csc(NC(=O)c2ccc(OC)c(OC)c2)n1 | inconclusive: 16.9 µM [inhibitor, partial curve]
CCn1ncc(C2=NOC(C(=O)Nc3c(C)nn(Cc4ccc(F)cc4)c3C)C2)c1C (stereo not given) | inactive
CCCCOc1ccc(CSc2nc(C)[nH]c2[N+](=O)[O-])cc1[N+](=O)[O-] | inconclusive: 37.9 µM [inhibitor, single point]
COc1ccccc1Nc1ncnc2ccccc12 | inconclusive: 33.8 µM [inhibitor, partial curve, poor fit]
COc1ccc(C(=O)NCC(c2cccnc2)N2CCc3ccccc32)cc1 (stereo not given) | inactive
Cc1ccc(-c2ccc(/C=N/NC(=O)Cc3nnc(N)s3)o2)cc1Cl | inconclusive: 10.7 µM [inhibitor, partial curve, poor fit]
Cc1ccc2c(CN3CCN(S(=O)(=O)c4ccccc4C(F)(F)F)CC3)cc(=O)oc2c1 | inactive
CC(=O)Nc1cccc(-c2nnc(-c3ccc(C)cc3)o2)c1 | inconclusive: 4.78 µM [inhibitor, full curve]
O=C(O)C1C2C=CC(O2)C1C(=O)Nc1ccc2c(c1)OCCO2 (stereo not given) | inconclusive: 21.3 µM [inhibitor, single point]
CCOC(=O)c1ccc(N=NN(C)C)cc1 | active: 19 µM
CCOc1ccc(S(=O)(=O)Nc2cc(SCC(=O)O)c(O)c3ccccc23)cc1 | inconclusive: 16.9 µM [inhibitor, partial curve]
O=C(Nc1ccccc1)c1nnsc1S(=O)(=O)c1ccc(Cl)cc1 | inconclusive: 19 µM [inhibitor, single point]
Nc1c(C(=O)Nc2ccc3c(c2)OCCO3)nnn1Cc1cccc(F)c1 | inconclusive: 4.78 µM [inhibitor, single point]
O=C(CSc1ccc(-c2ccc(Br)cc2)nn1)N1CCOCC1 | active: 15.1 µM
Nc1nc2ccc(NC(=O)c3ccco3)cc2s1 | active: 15.1 µM

Structure (SMILES) | Potency
O=C(O)CC/C(=N/NC(=O)c1cccs1)c1ccccc1 | inconclusive: 37.9 µM [inhibitor, single point]
CCCc1ccc2oc(C(=O)N3CCNC(=O)C3CC(=O)OC)c(C)c2c1 (stereo not given) | inconclusive: 21.3 µM [inhibitor, partial curve]
COc1ccc(OCC(O)CN(CC(O)COc2ccc(OC)cc2)c2cccc(O)c2)cc1 (stereo not given) | inconclusive: 37.9 µM [inhibitor, single point]
Cc1ccsc1C(=O)OCc1nc2ccccc2c(=O)[nH]1 | inconclusive: 37.9 µM [inhibitor, partial curve, poor fit]
COc1ccc(OC)c(NC(=O)c2noc3c2CCCC3)c1 | inconclusive: 26.9 µM [inhibitor, single point]
O=C(Oc1ccc(OC(=O)N2CCCCC2)cc1)N1CCCCC1 | inactive
CCN(CC)C(=O)CSc1nnc(-c2ccco2)o1 | inconclusive: 23.9 µM [inhibitor, partial curve, poor fit]
O=c1c2ccccc2nc(COc2ccccc2)n1/N=C/c1ccc(O)c(O)c1 | active: 26.9 µM
O=C(NCC1CCCO1)c1ccc(N2CCCCC2)c([N+](=O)[O-])c1 (stereo not given) | inconclusive: 37.9 µM [inhibitor, partial curve, poor fit]
COc1ccc(-c2nnc(SCc3nc4ccccc4s3)n2C(C)C)cc1 | inconclusive: 21.3 µM [inhibitor, single point]
COc1cccc(C(=O)O/N=C(\N)c2ccc(C)cc2)c1 | active: 1.9 µM
Cc1cccc(N2CCN(CCNC(=O)C3COc4ccccc4C3)CC2)c1C (stereo not given) | inactive
CCCCCc1nnc(NC(=O)C2COc3ccccc3O2)s1 (stereo not given) | inconclusive: 26.9 µM [inhibitor, single point]
CSc1ccc(CCNC(=O)CCc2c(C)nc3c(c(C)nn3-c3ccccc3)c2C)cc1 | inactive
COc1cc(C2c3c([nH]c(=O)[nH]c3=O)Nc3ccc4ccccc4c32)ccc1O (stereo not given) | inconclusive: 30.1 µM [inhibitor, partial curve, poor fit]
CCn1c(CSc2nc3ccccc3s2)nnc1SCC(=O)c1ccc(Cl)cc1 | inconclusive: 37.9 µM [inhibitor, partial curve, poor fit]
CCN(CC)c1ccc(/C=C(\C#N)C(=O)NCc2ccco2)cc1 | inconclusive: 26.9 µM [inhibitor, single point]
S=C(NCCc1ccccc1)Nc1cnc2ccccc2c1 | active: 26.9 µM
Cc1ccc(Cl)cc1-n1ncc2c(NC3CCCCCC3)ncnc21 | inactive
Cc1ccc(-n2nc(C(=O)N3CCC(C)CC3)c(=O)n(C)c2=O)cc1 | inactive
CC1=NOC(=O)/C1=C/c1ccc(O)c(Cl)c1 | inconclusive: 37.9 µM [inhibitor, single point]
CC(C)[C@@H]1COC(c2cccc(C3=N[C@H](C(C)C)CO3)c2)=N1 | inconclusive: 26.9 µM [inhibitor, single point]
O=[N+]([O-])c1ccc(CN2CCN(c3nc4ccccc4s3)CC2)cc1 | inconclusive: 15.1 µM [inhibitor, partial curve, poor fit]
O=C(CSc1ccccn1)Nc1cccc([N+](=O)[O-])c1 | inconclusive: 37.9 µM [inhibitor, partial curve, poor fit]

Structure (SMILES) | Potency
O=C(CSc1nc2ccccc2s1)Nc1ccc(C(=O)O)cc1 | inconclusive: 37.9 µM [inhibitor, single point]
COCCN(C(C)=O)c1nnc(-c2ccccn2)s1 | inactive
CCCCc1cc(=O)oc2cc(C)cc(OCC(=O)NC(Cc3ccc(Cl)cc3)C(=O)O)c12 (stereo not given) | inactive
COc1cccc(-c2nn(Cc3ccccc3)cc2CO)c1 | inconclusive: 23.9 µM [inhibitor, single point]
O=C(Nc1ccc(Cl)cn1)c1cccc(S(=O)(=O)N2CCCCC2)c1 | inactive
CCC(=O)Oc1ccc(/C=C(\C#N)c2nc3ccccc3[nH]2)cc1OC | active: 2.69 µM
O=C(NCc1ccccn1)Nc1ccc(Br)cc1Cl | inconclusive: 15.1 µM [inhibitor, partial curve]
COCCNC(=O)c1ccc(-c2csc(C)n2)cc1 | inconclusive: 21.3 µM [inhibitor, partial curve]
Cc1ccc(Nc2c(-c3cccs3)nc3nc(C)cc(C)n23)cc1 | inconclusive: 33.8 µM [inhibitor, single point]
COc1ccc(-c2csc(N3CCN(C(=O)c4ccccc4)CC3)n2)cc1 | inconclusive: 19 µM [inhibitor, partial curve, poor fit]
c1ccc2cc(CCCc3cc4ccccc4cn3)ncc2c1 | inconclusive: 33.8 µM [inhibitor, single point]
COCCN(C(=O)Nc1ccccc1OC)c1nc2ccccc2s1 | inconclusive: 23.9 µM [inhibitor, partial curve, poor fit]
Cc1ccc(CNC(=O)c2ccc(Cn3c(=O)c4ccccc4n(CC(=O)Nc4ccc(C)cc4C)c3=O)cc2)cc1 | inactive
Cc1cc(C(=O)NCc2ccc3c(c2)OCO3)ccc1[N+](=O)[O-] | inconclusive: 37.9 µM [inhibitor, partial curve, poor fit]
COc1cc(NC(=O)c2cc(-c3cccs3)on2)cc(OC)c1OC | inconclusive: 21.3 µM [inhibitor, partial curve, poor fit]
Cc1nnc(SCc2ccc([N+](=O)[O-])cc2)[nH]c1=O | inconclusive: 21.3 µM [inhibitor, single point]
CCCn1c(NCc2ccc(N(C)C)cc2)nc2ccccc21 | inconclusive: 26.9 µM [inhibitor, single point]
COc1ccccc1Cc1nc(-c2ccncc2)no1 | inactive
O=C(CSc1nnc(COc2ccccc2Cl)o1)NC(=O)NC1CCCC1 | inconclusive: 16.9 µM [inhibitor, partial curve]
COc1ccc(-c2c(NCCc3ccccc3)c(=O)c2=O)cc1 | inactive
Cc1onc(-c2c(F)cccc2Cl)c1C(=O)Nc1nnc(C2CC2)s1 | inactive
CCN(CCC#N)c1ccc(/C=N/Nc2nc(C)cc(=O)[nH]2)c(C)c1 | inconclusive: 15.1 µM [inhibitor, partial curve]
